Reference: the supplement of paper PMC8285479
Where “and” joins values, the source holds several entries; their conditions need not be identical. Equal values may be shown once. Where a name gives a salt, the structure may show the parent alone. ± gives the standard deviation of the averaged measurements. The full ranking holds about 1,900 compounds; the median of “normalised cell viability (NPI; 0 = phenylarsine oxide control, 1 = DMSO control)” is about 1, and the lowest 2% start at about 0.039. The list shows a part of the results.

System: NCI-H1944
Assay: normalised cell viability (NPI; 0 = phenylarsine oxide control, 1 = DMSO control) (fraction of DMSO control); NCI-H1944 is a non-small cell lung cancer line; higher = more viable cells (less compound toxicity)
Conditions: 6 days
[1] = glucocorticoid arm: hydrocortisone 2.75 uM co-treatment, compound 1 µM
[2] = glucocorticoid arm: hydrocortisone 2.75 uM co-treatment, compound 5 µM
[3] = glucocorticoid arm: hydrocortisone 2.75 uM pre-treated 2 days and continued, compound 1 µM
[4] = glucocorticoid arm: hydrocortisone 2.75 uM pre-treated 2 days and continued, compound 5 µM
[5] = glucocorticoid arm: vehicle, compound 1 µM
[6] = glucocorticoid arm: vehicle, compound 5 µM
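Note: CTB read-out in 384-well plates, mean of triplicate wells, normalised per plate against 1 µM phenylarsine oxide and 0.1% DMSO, compounds added 24 h after seeding.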

SMILES | normalised cell viability [1] | normalised cell viability [2] | normalised cell viability [3] | normalised cell viability [4] | normalised cell viability [5] | normalised cell viability [6]
C=Cc1c(C)c2cc3[nH]c(cc4nc(cc5nc(cc1[nH]2)C(C)=C5CCC(=O)O)C(CCC(=O)O)=C4C)c(C)c3C=C [Protoporphyrin IX] | 0.9863 ± 0.0084 | 1.02 ± 0.029 | 1 ± 0.024 | 1.03 ± 0.017 | 0.9833 ± 0.0042 | 0.98 ± 0.009
Cc1ccc(O)c(N=Nc2ccccc2)n1 | 1.013 ± 0.0058 | 1.013 ± 0.0058 | 1.02 ± 0.029 | 1.01 ± 0.011 | 1.01 | 1.01 ± 0.013
CN1CCc2cc(O)c(O)cc2C(c2ccccc2)C1 (configuration not stated) | 1 ± 0.0087 | 1.02 ± 0.022 | 0.876 ± 0.23 | 1.01 ± 0.02 | 1.02 | 1.023 ± 0.0058
CCn1c2ccccc2c2cc(Nc3ccnc(NCCCN4CCOCC4)n3)ccc21 | 1.04 ± 0.01 | 1.04 ± 0.02 | 1.04 ± 0.01 | 1.01 ± 0.036 | 1.01 ± 0.015 | 0.438 ± 0.12
Cc1cn(C2C=CC(CO)O2)c(=O)[nH]c1=O (configuration not stated) [2',3'-didehydro-3'-deoxythymidine] | 0.995 ± 0.013 | 0.983 ± 0.033 | 0.989 ± 0.023 | 0.981 ± 0.017 | 0.9803 ± 0.004 | 0.983 ± 0.001
NC1(C(=O)N[C@@H](CCO)c2ccc(Cl)cc2)CCN(c2ncnc3[nH]ccc23)CC1 | 0.748 ± 0.021 | 0.613 ± 0.036 | 0.776 ± 0.011 | 0.672 ± 0.03 | 0.9227 ± 0.0084 | 0.701 ± 0.036
CC(CCc1ccccc1)NCC(O)c1ccc(O)c(C(N)=O)c1 (configuration not stated) [Labetalol hydrochloride] | 1.01 ± 0.011 | 1 ± 0.043 | 0.997 ± 0.015 | 0.9877 ± 0.006 | 1.007 ± 0.0058 | 1.004 ± 0.0098
CC(CCc1ccccc1)NCC(O)c1ccc(O)c(C(N)=O)c1 (configuration not stated) [Labetalol HCl] | 1.023 ± 0.0058 | 1.02 ± 0.029 | 1.03 ± 0.021 | 1.02 ± 0.022 | 0.994 ± 0.016 | 0.992 ± 0.016
Cc1oncc1C(=O)Nc1ccc(C(F)(F)F)cc1 [Leflunomide] | 0.9777 ± 0.0085 | 0.913 ± 0.035 | 0.987 ± 0.0072 | 0.844 ± 0.19 | 0.9927 ± 0.0064 | 0.991 ± 0.0082
O=C(O)c1cccnc1Nc1cccc(C(F)(F)F)c1 [Niflumic acid] |  | 1.01 | 1.02 |  | 1.02 and 1.01 | 
CN(C)/N=N/c1[nH]cnc1C(N)=O [Dacarbazine] | 0.979 ± 0.02 | 0.844 ± 0.016 | 1 ± 0.012 | 0.93 ± 0.014 | 1 ± 0.0095 | 0.9693 ± 0.005
CCCCCC[C@@H]([C@@H](C)O)n1cnc2c(N)ncnc21 [erythro-9-(2-Hydroxy-3-nonyl)adenine hydrochloride] | 0.999 ± 0.001 | 0.992 ± 0.024 | 0.987 ± 0.012 | 0.997 ± 0.023 | 0.973 ± 0.0053 | 0.9777 ± 0.0055
C[N+](C)(C)CCCCCC[N+](C)(C)C [Hexamethonium bromide] | 1.01 ± 0.01 | 1.01 | 1.013 ± 0.0058 | 1.03 ± 0.017 | 1.001 ± 0.009 | 1.003 ± 0.0058
C[N+](C)(C)CCCCCC[N+](C)(C)C [Hexamethonium dichloride] | 1.002 ± 0.0076 | 0.991 ± 0.027 | 0.9997 ± 0.009 | 1.01 ± 0.019 | 0.9937 ± 0.0055 | 0.9913 ± 0.0011
CCCCCCCCc1ccc(-c2ccc(C(=O)O)cc2)cc1 | 0.994 ± 0.027 | 0.987 ± 0.012 | 0.891 ± 0.19 | 0.967 ± 0.013 | 1.027 ± 0.0058 | 1.02 ± 0.011
